The list shows a part of the results. Sequences were assembled here from the parent chain. Values near 0.05 are background.
B1: TEV protease; numbered along this chain (parent)
chain: MGESLFKGPRDYNPISSSICHLTNESDGHTTSLYGIGFGPFIITNKHLFRRNNGTLVVQSLHGVFKVKDTTTLQQHLVDGRDMIIIRMPKDFPPFPQKLKFREPQREERICLVTTNFQTKSMSSMVSDTSCTFPSGDGIFWKHWIQTKDGQCGSPLVSTRDGFIVGIHSASNFTNTNNYFTSVPKNFMELLTNQEAQQWVSGWRLNADSVLWGGHKVFMVKPEEPFQPVKEATQL

Variants of: B1
Assay: raw area under fraction-flipped curve 0-4 h after induction (AUC4h, not background-subtracted), DNA-recorder readout of cleavage of the substrate (dimensionless); higher = more cleavage of the substrate by the protease variant
Details: temperature: 34 °C; time window: 0-4 h after rhamnose induction
Method: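 In vivo DNA recorder in E. coli TOP10(DE3) ΔrhaA at 34 °C. Each TEVp single-site mutant (parent TEVp 0) is paired with a single-site variant of the 7-mer TEVs (canonical ENLYFQ|S). The substrate sits between flexible linkers in a Bxb1-sfGFP-TEVs-SsrA fusion, so cleavage stabilises Bxb1 and speeds flipping of a recombination array, read by NGS. The value is the raw area under the fraction-flipped curve over 0-4 h after rhamnose induction (AUC4h), with ≥20 reads per time point. It is not background-subtracted; inactive controls average about 0.047.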
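Also: Bxb1 expression induced with 0.2% (w/v) L-rhamnose at OD600 near 0.5, cultures sampled hourly, flipped fraction per protease–substrate barcode pair counted by paired-end Illumina sequencing.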

Variant	area with substrate ENAYFQS	area with substrate ENCYFQS	area with substrate ENDYFQS	area with substrate ENEYFQS	area with substrate ENFYFQS	area with substrate ENGYFQS	area with substrate ENHYFQS	area with substrate ENIYFQS	area with substrate ENKYFQS	area with substrate ENNYFQS	area with substrate ENQYFQS	area with substrate ENSYFQS	area with substrate ENTYFQS	area with substrate ENYYFQS	area with substrate ENRYFQS	area with substrate ENVYFQS	area with substrate ENPYFQS	area with substrate ENMYFQS	area with substrate ENWYFQS
S121A	0.144	0.0573	0.0644	0.0526	0.0622	0.0615	0.0633	0.122	0.0613	0.0756	0.0651	0.0462	0.0513	0.0583	–	–	–	–	–
S121E	0.0649	0.0707	–	0.059	0.0681	0.0571	0.0696	–	–	–	0.0671	0.0225	0.0614	–	0.0642	0.0813	–	–	–
M122P	0.0621	–	0.0544	0.0627	0.0721	–	–	0.0636	–	0.0367	0.0379	0.0624	–	0.0391	0.0544	0.0821	0.0567	–	–
M122Y	0.0742	0.0708	0.063	0.0524	0.0093	0.033	0.057	–	0.0686	0.0596	0.0621	0.0471	0.0685	0.0434	0.0539	0.0867	0.0654	0.0702	–
S123T	0.0728	–	0.0655	0.0616	–	–	0.0484	0.107	–	0.0558	0.0652	0.0547	0.0473	–	0.0522	0.0809	0.0468	–	–
D128H	0.0658	0.0719	0.0331	–	0.0775	0.0769	0.0423	0.114	0.0658	0.0621	0.0597	0.0491	0.0633	0.0556	0.078	0.0801	0.0524	0.0906	–
T129P	0.0756	0.0664	0.06	0.0479	0.0406	–	0.0691	0.0764	–	0.0741	0.061	0.0667	0.063	0.0599	0.0559	0.0701	0.0693	0.0696	0.0566
T132G	0.0642	0.0678	0.0684	0.063	0.0731	0.0641	0.0543	0.115	0.0538	–	0.082	–	0.0685	–	0.0571	0.0643	0.0582	0.0788	0.0049
T132S	0.0659	–	0.0663	0.0557	0.0669	–	–	–	–	–	–	–	0.0628	–	0.0527	–	–	–	–
P134E	0.0548	0.0504	0.0689	0.0636	0.0538	0.0814	0.0499	–	0.0392	–	0.0708	0.0612	0.0623	–	–	–	–	0.0683	–
P134L	0.0459	–	0.0644	0.0592	–	–	0.0577	–	–	0.049	0.0518	0.0569	0.0624	0.0523	0.0734	0.0641	0.0279	0.07	–
S135D	0.0594	0.0685	–	0.0592	0.0544	0.0667	–	0.102	–	–	0.0822	0.0654	–	–	–	–	0.0588	–	–
S135I	0.0557	0.0697	0.0422	0.0639	0.0475	0.0659	–	–	0.0591	0.0871	–	0.0571	0.0586	0.0629	0.0591	0.0415	0.0771	–	–
I139N	0.0623	0.0601	0.0531	0.0654	0.056	–	0.0678	0.103	0.0557	–	0.0569	0.0664	0.0597	–	0.0585	0.0755	0.0673	–	0.0586
F140I	0.0617	0.0636	0.0585	0.0601	0.0686	0.074	0.05	0.0444	0.0683	0.0645	0.0587	0.059	0.0566	0.0544	0.0616	0.0606	0.0587	–	0.0458
F140M	0.0653	0.0487	0.0755	0.0607	–	–	0.0531	0.0708	0.0492	–	0.062	–	–	–	0.0492	–	–	–	–
F140P	0.0614	0.0643	0.0579	0.0746	–	0.0501	0.0421	–	–	0.0634	–	0.0624	0.0253	0.0558	0.0567	0.059	0.0631	–	–
W144Q	0.0526	0.0694	–	0.071	–	–	–	–	0.0646	0.0731	0.0693	0.0653	0.0555	–	0.0284	0.0665	0.0594	0.0578	–
I145C	0.0744	0.081	0.0529	0.0759	0.0513	0.0801	0.086	0.137	0.0737	0.0591	0.0622	0.125	0.0612	0.049	–	–	–	–	–
T147Y	0.0549	0.043	0.0693	–	0.0351	0.065	–	–	0.0711	–	0.0613	–	0.0635	0.0512	–	0.0556	–	–	–
K148M	0.065	0.0593	0.0572	0.0596	0.0639	0.0422	0.0549	0.122	–	0.043	0.0565	0.0462	0.057	–	0.0488	–	0.0613	0.0499	–
K148N	0.0738	0.0649	0.069	0.0604	–	–	0.0724	0.0745	0.0685	0.0674	0.0608	0.06	0.0676	0.0851	–	0.0703	0.0692	0.0649	0.0013
K148T	0.0031	0.0418	0.0622	0.0622	0.0653	–	0.0525	0.0794	–	0.0635	–	0.0377	0.0648	–	0.0585	0.0659	–	–	–
D149Q	0.0683	0.0584	0.073	0.0561	0.0581	0.0562	0.0587	–	0.06	–	0.0641	0.0686	0.0808	–	0.0551	0.0614	–	–	–
D149S	0.0546	0.0208	0.0634	0.058	–	0.0535	0.048	–	0.059	–	0.0564	0.0686	–	0.0494	–	0.0429	0.0589	0.0932	–
G150F	0.0632	0.0599	0.0565	–	0.0597	0.071	0.0574	0.0609	0.0702	–	0.0585	0.0528	0.0665	0.0655	–	0.0603	0.0649	0.0562	–

— the supplement of paper PMC12217912
